Some of the results follow. Sequences were assembled here from the parent chain. Values near 0.05 are background.
B1: TEV protease; numbered along this chain (parent)
chain: MGESLFKGPRDYNPISSSICHLTNESDGHTTSLYGIGFGPFIITNKHLFRRNNGTLVVQSLHGVFKVKDTTTLQQHLVDGRDMIIIRMPKDFPPFPQKLKFREPQREERICLVTTNFQTKSMSSMVSDTSCTFPSGDGIFWKHWIQTKDGQCGSPLVSTRDGFIVGIHSASNFTNTNNYFTSVPKNFMELLTNQEAQQWVSGWRLNADSVLWGGHKVFMVKPEEPFQPVKEATQL

Variants of: B1
Test: raw area under fraction-flipped curve 0-4 h after induction (AUC4h, not background-subtracted), DNA-recorder readout of cleavage of the substrate (dimensionless); higher = more cleavage of the substrate by the protease variant
Conditions: temperature: 34 °C; time window: 0-4 h after rhamnose induction
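Also: Bxb1 expression induced with 0.2% (w/v) L-rhamnose at OD600 near 0.5, cultures sampled hourly, flipped fraction per protease–substrate barcode pair counted by paired-end Illumina sequencing.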

Row | Variant | area with substrate ENCYFQS | area with substrate ENDYFQS | area with substrate ENFYFQS | area with substrate ENHYFQS | area with substrate ENIYFQS | area with substrate ENKYFQS | area with substrate ENMYFQS | area with substrate ENNYFQS | area with substrate ENPYFQS | area with substrate ENQYFQS | area with substrate ENSYFQS | area with substrate ENVYFQS | area with substrate ENEYFQS | area with substrate ENGYFQS | area with substrate ENRYFQS | area with substrate ENTYFQS | area with substrate ENWYFQS | area with substrate ENYYFQS
1 | MGESLFKGPRDYNPISSSICHLTNESDGHTTSLYGIGFGPFIITQKHLFRRNNGTLVVQSLHGVFKVKDTTTLQQHLVDGRDMIIIRMPKDFPPFPQKLKFREPQREERICLVTTNFQTKSMSSMVSDTSCTFPSGDGIFWKHWIQTKDGQCGSPLVSTRDGFIVGIHSASNFTNTNNYFTSVPKNFMELLTNQEAQQWVSGWRLNADSVLWGGHKVFMVKPEEPFQPVKEATQL [N45Q] | 0.0598 | 0.0605 | 0.0743 | 0.0444 | 0.0571 | 0.06 | 0.101 | 0.0621 | 0.0656 | 0.0699 | 0.0596 | 0.052 | – | – | – | – | – | –
2 | MGESLFKGPRDYNPISSSICHLTNESDGHTTSLYGIGFGPFIITSKHLFRRNNGTLVVQSLHGVFKVKDTTTLQQHLVDGRDMIIIRMPKDFPPFPQKLKFREPQREERICLVTTNFQTKSMSSMVSDTSCTFPSGDGIFWKHWIQTKDGQCGSPLVSTRDGFIVGIHSASNFTNTNNYFTSVPKNFMELLTNQEAQQWVSGWRLNADSVLWGGHKVFMVKPEEPFQPVKEATQL [N45S] | 0.053 | – | 0.046 | 0.057 | – | 0.0564 | – | 0.0651 | 0.0567 | 0.0563 | 0.0587 | 0.0588 | 0.0652 | 0.0736 | 0.0724 | 0.0551 | 0.0531 | 0.0624
3 | MGESLFKGPRDYNPISSSICHLTNESDGHTTSLYGIGFGPFIITNKALFRRNNGTLVVQSLHGVFKVKDTTTLQQHLVDGRDMIIIRMPKDFPPFPQKLKFREPQREERICLVTTNFQTKSMSSMVSDTSCTFPSGDGIFWKHWIQTKDGQCGSPLVSTRDGFIVGIHSASNFTNTNNYFTSVPKNFMELLTNQEAQQWVSGWRLNADSVLWGGHKVFMVKPEEPFQPVKEATQL [H47A] | 0.0557 | – | 0.0358 | – | 0.0652 | – | 0.0558 | – | 0.0703 | 0.0484 | – | 0.0649 | – | – | – | 0.0705 | 0.0016 | –
4 | MGESLFKGPRDYNPISSSICHLTNESDGHTTSLYGIGFGPFIITNKHLFRRMNGTLVVQSLHGVFKVKDTTTLQQHLVDGRDMIIIRMPKDFPPFPQKLKFREPQREERICLVTTNFQTKSMSSMVSDTSCTFPSGDGIFWKHWIQTKDGQCGSPLVSTRDGFIVGIHSASNFTNTNNYFTSVPKNFMELLTNQEAQQWVSGWRLNADSVLWGGHKVFMVKPEEPFQPVKEATQL [N52M] | 0.0687 | 0.0503 | – | – | – | – | – | – | – | – | – | 0.0717 | – | 0.0783 | – | – | – | 0.0568
5 | MGESLFKGPRDYNPISSSICHLTNESDGHTTSLYGIGFGPFIITNKHLFRRNNGTLVVQSLHFVFKVKDTTTLQQHLVDGRDMIIIRMPKDFPPFPQKLKFREPQREERICLVTTNFQTKSMSSMVSDTSCTFPSGDGIFWKHWIQTKDGQCGSPLVSTRDGFIVGIHSASNFTNTNNYFTSVPKNFMELLTNQEAQQWVSGWRLNADSVLWGGHKVFMVKPEEPFQPVKEATQL [G63F] | 0.0548 | 0.059 | 0.0374 | – | 0.119 | – | 0.0761 | 0.0429 | – | 0.0613 | 0.0718 | 0.0717 | 0.0567 | – | 0.0702 | 0.0681 | – | 0.0384
6 | MGESLFKGPRDYNPISSSICHLTNESDGHTTSLYGIGFGPFIITNKHLFRRNNGTLVVQSLHGVEKVKDTTTLQQHLVDGRDMIIIRMPKDFPPFPQKLKFREPQREERICLVTTNFQTKSMSSMVSDTSCTFPSGDGIFWKHWIQTKDGQCGSPLVSTRDGFIVGIHSASNFTNTNNYFTSVPKNFMELLTNQEAQQWVSGWRLNADSVLWGGHKVFMVKPEEPFQPVKEATQL [F65E] | 0.0648 | 0.0561 | 0.0658 | 0.0331 | – | – | 0.0757 | – | 0.0566 | 0.0635 | 0.0629 | 0.0768 | – | 0.0664 | 0.0414 | – | 0.0659 | 0.0422
7 | MGESLFKGPRDYNPISSSICHLTNESDGHTTSLYGIGFGPFIITNKHLFRRNNGTLVVQSLHGVFKVFDTTTLQQHLVDGRDMIIIRMPKDFPPFPQKLKFREPQREERICLVTTNFQTKSMSSMVSDTSCTFPSGDGIFWKHWIQTKDGQCGSPLVSTRDGFIVGIHSASNFTNTNNYFTSVPKNFMELLTNQEAQQWVSGWRLNADSVLWGGHKVFMVKPEEPFQPVKEATQL [K68F] | 0.0525 | 0.0677 | 0.0753 | – | – | – | – | 0.0694 | 0.0639 | 0.0481 | 0.0594 | 0.0726 | – | – | – | 0.0715 | – | –
8 | MGESLFKGPRDYNPISSSICHLTNESDGHTTSLYGIGFGPFIITNKHLFRRNNGTLVVQSLHGVFKVKDTTTLGQHLVDGRDMIIIRMPKDFPPFPQKLKFREPQREERICLVTTNFQTKSMSSMVSDTSCTFPSGDGIFWKHWIQTKDGQCGSPLVSTRDGFIVGIHSASNFTNTNNYFTSVPKNFMELLTNQEAQQWVSGWRLNADSVLWGGHKVFMVKPEEPFQPVKEATQL [Q74G] | 0.0644 | 0.0651 | 0.0564 | 0.0457 | 0.0819 | 0.0564 | – | – | 0.0819 | 0.0636 | – | 0.0897 | 0.0589 | 0.0715 | 0.0579 | 0.0357 | 0.0053 | 0.0593
9 | MGESLFKGPRDYNPISSSICHLTNESDGHTTSLYGIGFGPFIITNKHLFRRNNGTLVVQSLHGVFKVKDTTTLQQHLVLGRDMIIIRMPKDFPPFPQKLKFREPQREERICLVTTNFQTKSMSSMVSDTSCTFPSGDGIFWKHWIQTKDGQCGSPLVSTRDGFIVGIHSASNFTNTNNYFTSVPKNFMELLTNQEAQQWVSGWRLNADSVLWGGHKVFMVKPEEPFQPVKEATQL [D79L] | 0.0663 | – | – | – | 0.126 | 0.0492 | 0.0967 | – | – | 0.06 | 0.0652 | – | 0.0624 | – | 0.0454 | – | 0.0433 | 0.0561
10 | MGESLFKGPRDYNPISSSICHLTNESDGHTTSLYGIGFGPFIITNKHLFRRNNGTLVVQSLHGVFKVKDTTTLQQHLVDGRDMIKIRMPKDFPPFPQKLKFREPQREERICLVTTNFQTKSMSSMVSDTSCTFPSGDGIFWKHWIQTKDGQCGSPLVSTRDGFIVGIHSASNFTNTNNYFTSVPKNFMELLTNQEAQQWVSGWRLNADSVLWGGHKVFMVKPEEPFQPVKEATQL [I85K] | 0.0636 | 0.0474 | 0.0494 | 0.0532 | – | 0.0733 | 0.0896 | – | – | 0.0612 | 0.0539 | 0.0584 | 0.0617 | 0.0556 | 0.0644 | – | – | 0.0472
